Reference: the supplement of paper PMC10369915
The list shows a part of the results. No stated cut-off is given here; in the data, active = 3.2 or more and inactive = the rest. The signal is at background level for most entries.

Legend:
Experiment in all cases: enrichment score (SH2-bound / input frequency) (ratio); bacterial display of known human phosphotyrosine sites (pTyr-Var adds point mutants) read by sequencing; higher = stronger binding; tyrosines were phosphorylated by kinases first
Details in all cases: peptide library: pTyr-Var
SHP2 C-SH2 domain E139D = biological target: SHP2 C-SH2 domain E139D
[1] = biological target: SHP2 C-SH2 domain wild-type
SHP2 N-SH2 domain L43F = biological target: SHP2 N-SH2 domain L43F
SHP2 N-SH2 domain T42A = biological target: SHP2 N-SH2 domain T42A
SHP2 N-SH2 domain T52S = biological target: SHP2 N-SH2 domain T52S
[2] = biological target: SHP2 N-SH2 domain wild-type
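Further: displayed peptides selected on beads carrying the immobilized SH2 domain, with library peptides lacking any tyrosine serving as negative controls.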

Row | Binder | enrichment score (SHP2 C-SH2 domain E139D) | enrichment score [1] | enrichment score (SHP2 N-SH2 domain L43F) | enrichment score (SHP2 N-SH2 domain T42A) | enrichment score (SHP2 N-SH2 domain T52S) | enrichment score [2]
1 | CGTPTYLAPEV [CHEK2_Y390] | inactive: 0.889 | inactive: 1.16 | inactive: 0.771 | inactive: 0.869 | inactive: 0.825 | inactive: 1.11
2 | NIQKKYYRAIL [CHD7_Y1217] | inactive: 1.12 | inactive: 0.761 | inactive: 0.95 | inactive: 1.01 | inactive: 0.764 | inactive: 1.24
3 | IFLENYNAGTF [CFI_Y421_H418L_YF] | inactive: 0.797 | inactive: 0.864 | inactive: 0.871 | inactive: 0.848 | inactive: 0.937 | inactive: 0.821
4 | FQEKGYNKEPR [CHRND_Y38_L42P] | inactive: 0.879 | inactive: 0.859 | inactive: 0.859 | inactive: 0.99 | inactive: 0.692 | inactive: 0.902
5 | LQLLGDRPVFS [CHST6_Y358_Y358D_YF] | inactive: 1.11 | inactive: 1.04 | inactive: 1.09 | inactive: 1.08 | inactive: 1 | inactive: 1.23
6 | EEVKAYLDFRE [CHAC2_Y78] | inactive: 0.813 | inactive: 0.844 | inactive: 0.793 | inactive: 0.778 | inactive: 0.61 | inactive: 1.05
7 | ETKENYGKTLK [CHL1_Y291] | inactive: 0.454 | inactive: 0.328 | inactive: 0.713 | inactive: 0.295 | inactive: 0.326 | inactive: 0.56
8 | RCNHPYLINGA [CHD7_Y1256_C1251R] | inactive: 1.68 | inactive: 1.72 | inactive: 1.67 | inactive: 1.26 | inactive: 1.58 | inactive: 1.6
9 | NIRKKYFRAIL [CHD7_Y1217_Q1214R_YF] | inactive: 0.386 | inactive: 0.341 | inactive: 0.249 | inactive: 0.28 | inactive: 0.253 | inactive: 0.267
10 | VSYDEYRYRSV [CFTR_Y515] | inactive: 0.754 | inactive: 0.565 | inactive: 0.602 | inactive: 0.663 | inactive: 0.56 | inactive: 0.683
11 | LFHENYNAGTY [CFI_Y421_I416L] | inactive: 0.747 | inactive: 0.887 | inactive: 1.06 | inactive: 1.01 | inactive: 0.93 | inactive: 1.2
12 | LQLLGYRPVYS [CHST6_Y358] | inactive: 1.18 | inactive: 1.26 | inactive: 1.2 | inactive: 1.12 | inactive: 1.42 | inactive: 1.31
13 | CCNHPYRINGA [CHD7_Y1256_L1257R] | inactive: 1.25 | inactive: 1.21 | inactive: 1.17 | inactive: 1.1 | inactive: 1.36 | inactive: 1.33
14 | YAFQLYDLDRD [CHP2_Y123] | inactive: 1.18 | inactive: 2.87 | inactive: 1.38 | inactive: 2.07 | inactive: 1.67 | inactive: 1.02
15 | LFHENYNAGTF [CFI_Y421_I416L_YF] | inactive: 1.17 | inactive: 0.865 | inactive: 0.966 | inactive: 0.869 | inactive: 0.893 | inactive: 0.8
16 | VSFDEYRFRSV [CFTR_Y515_YF] | inactive: 0.801 | inactive: 0.663 | inactive: 0.871 | inactive: 0.553 | inactive: 0.663 | inactive: 0.683
17 | IFGVSYDEFRF [CFTR_Y512_YF] | inactive: 1.41 | inactive: 1.03 | inactive: 0.943 | inactive: 1.55 | inactive: 1.34 | inactive: 0.875
18 | EEGENYQKGEQ [CHGB_Y173_R178Q] | inactive: 0.48 | inactive: 0.576 | inactive: 0.39 | inactive: 0.521 | inactive: 0.411 | inactive: 0.584
19 | SLFQFYFQQKG [CHKB_Y381_R377L] | active: 3.93 | active: 3.56 | active: 3.96 | active: 3.3 | active: 3.45 | active: 3.88

Row | Binder | enrichment score (SHP2 C-SH2 domain E139D) | enrichment score [1] | enrichment score (SHP2 N-SH2 domain L43F) | enrichment score (SHP2 N-SH2 domain T42A) | enrichment score (SHP2 N-SH2 domain T52S) | enrichment score [2]
20 | ICGVSYDEYRY [CFTR_Y512_F508C] | inactive: 0.902 | inactive: 1.12 | inactive: 0.813 | inactive: 0.924 | inactive: 0.788 | inactive: 1.02
21 | NIRKKYYRAIL [CHD7_Y1217_Q1214R] | inactive: 0.435 | inactive: 0.304 | inactive: 0.412 | inactive: 0.331 | inactive: 0.295 | inactive: 0.511
22 | FDEFRYRSFIK [CFTR_Y517_V520F_YF] | inactive: 0.756 | inactive: 0.682 | inactive: 0.627 | inactive: 0.595 | inactive: 0.6 | inactive: 0.473
23 | VFGVSYDEYRY [CFTR_Y512_I507V] | inactive: 1.01 | inactive: 0.857 | inactive: 1.06 | inactive: 1.09 | inactive: 1.23 | inactive: 1.09
24 | MNLLGYRQVRS [CHST4_Y359_H361Q] | inactive: 0.492 | inactive: 0.502 | inactive: 0.426 | inactive: 0.331 | inactive: 0.423 | inactive: 0.566
25 | YGEYRYRSVIK [CFTR_Y517_D513G] | inactive: 0.831 | inactive: 0.764 | inactive: 0.781 | inactive: 0.694 | inactive: 0.744 | inactive: 0.78
26 | DHCNQYEQQKM [CHD7_Y75_Y72C] | inactive: 0.868 | inactive: 0.781 | inactive: 0.792 | inactive: 0.737 | inactive: 0.917 | inactive: 0.841
27 | HEHVGYTTLNR [CHN1_Y148_Y143H] | active: 3.7 | active: 7.33 | inactive: 1.29 | inactive: 2.66 | inactive: 1.24 | inactive: 1.5
28 | SRFQFYFQQKG [CHKB_Y381] | inactive: 0.723 | inactive: 0.806 | inactive: 0.938 | inactive: 0.792 | inactive: 0.727 | inactive: 0.719
29 | CCNHPYLINGA [CHD7_Y1256] | inactive: 1.4 | inactive: 1.23 | inactive: 1.23 | inactive: 1.01 | inactive: 1.35 | inactive: 0.954
30 | FDEFRYRSVIK [CFTR_Y517_YF] | inactive: 0.689 | inactive: 0.56 | inactive: 0.475 | inactive: 0.595 | inactive: 0.469 | inactive: 0.645
31 | FAFQLYDLDRD [CHP2_Y123_YF] | inactive: 1.94 | inactive: 1.51 | inactive: 2.07 | inactive: 1.84 | inactive: 2.09 | inactive: 1.84
32 | TINPIHEHVGY [CHN1_Y143_Y143H] | inactive: 1.08 | inactive: 1.05 | inactive: 1.17 | inactive: 0.911 | inactive: 1.08 | inactive: 1.19
33 | AVLQPYIFVAT [CFTR_Y1014] | inactive: 0.728 | inactive: 1.02 | inactive: 0.735 | inactive: 0.857 | inactive: 0.873 | inactive: 1.01
34 | EACRSYSHVVL [CHST6_Y168] | inactive: 0.681 | inactive: 0.913 | inactive: 0.618 | inactive: 1.15 | inactive: 0.714 | inactive: 0.604
35 | IQKKYYRAILE [CHD7_Y1218] | inactive: 1.25 | inactive: 1.12 | inactive: 1.48 | inactive: 1.36 | inactive: 1.19 | inactive: 1.48
36 | EEGENYQKGER [CHGB_Y173] | inactive: 0.432 | inactive: 0.457 | inactive: 0.477 | inactive: 0.393 | inactive: 0.429 | inactive: 0.56
37 | VSYGEYRYRSV [CFTR_Y515_D513G] | inactive: 0.623 | inactive: 0.813 | inactive: 0.732 | inactive: 0.531 | inactive: 0.505 | inactive: 0.704
